Test results taken from US20100303801A1 (CRUCELL HOLLAND B V, published 2010).

Biological target: T1, recombinantly expressed purified soluble WNV E-protein (truncated form, strain 382-99) (West Nile virus strain 382-99, UniProt Q9Q6P4 291-696)
T1 construct: also called recombinant WNV E protein; truncated E protein; not shown: Myc tag and His tag from pAdapt.myc.his
T1 sequence: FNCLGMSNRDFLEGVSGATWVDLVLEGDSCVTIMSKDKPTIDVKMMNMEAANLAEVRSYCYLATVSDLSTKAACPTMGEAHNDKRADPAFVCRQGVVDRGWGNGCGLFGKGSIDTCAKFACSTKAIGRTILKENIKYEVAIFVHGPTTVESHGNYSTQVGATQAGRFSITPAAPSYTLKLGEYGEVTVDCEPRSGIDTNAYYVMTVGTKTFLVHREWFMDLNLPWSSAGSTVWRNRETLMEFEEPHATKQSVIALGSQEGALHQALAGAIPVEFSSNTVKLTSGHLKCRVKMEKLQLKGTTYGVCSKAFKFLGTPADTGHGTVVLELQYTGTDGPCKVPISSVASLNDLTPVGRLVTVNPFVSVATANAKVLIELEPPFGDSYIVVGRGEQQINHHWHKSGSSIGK
Experiment: phage ELISA on coated soluble WNV E-protein, OD 492 nm

B1: single-chain phage antibody SC04-348 (scFv)
scFv: EVQLVQSGGGLVQPGRSLRLSCAASGFTFDDYAMHWVRQAPGKGLEWVSGISWNSGNIGYADSVKGRFTISRDNAKNSLYLQMNSLRAEDTALYYCAKDKSYYYGSGTSGGWFDPWGQGTLVTVSSGTGGSGGTGSGTGGST[sequence of about 100 residues omitted]
binding result: no binding
